Measured values: PubChem BioAssay AID504832 (National Center for Advancing Translational Sciences (NCATS), 2011)
Out of some 310,000 compounds screened, about 18,000 (5.8%) were called active. The inconclusive results got no clear call from the source; some entries with a clear call stand among them for comparison. Calls come from the whole dose curve; as a rule, active = well fitted inhibition curve with a large enough effect; inconclusive = small, poorly fitted or top-dose-only effect, or another doubt; inactive = no such curve, though single readings can be large or run the other way. Potencies of inconclusive entries are left out as doubtful fits.

experiment: Primary qHTS for delayed death inhibitors of the malarial parasite plastid, 48 hour incubation; settings: P. falciparum luciferase growth in erythrocytes; series mostly up to 28.7 µM; activity change, negative = inhibition: at the top concentration
Procedure, shortened: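 In quantitative HTS format, infected erythrocytes bearing luciferase-reporter parasites were treated for a single generation at 37 C. Luminescence after adding detection reagent served as the growth measure.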
% is set by controls: 0 for no effect and ±100 for the full control effect; potency is the fitted concentration of half-maximal effect; tags give direction and shape of the fitted curve.

Compound	activity change, negative = inhibition	Potency
CCC(=O)Oc1ccc(-c2nc(-c3cccnc3)no2)cc1	inactive: 146%	–
O=C(NC1CCCN(CCc2ccccc2)C1)c1c[nH]c2ccccc12 (stereo not given)	–	inconclusive [inhibitor, single point]
CCOc1ccc(N2C(=O)C3ON(c4ccccc4)C(c4cccs4)C3C2=O)cc1 (stereo not given)	–	active: 11.7 µM
CN(C(=O)COC(=O)c1ccccc1Nc1ccccc1)c1c(N)n(Cc2ccccc2)c(=O)[nH]c1=O	–	inconclusive [inhibitor, single point]
CCOC(=O)c1c(C)[nH]c(C)c1S(=O)(=O)N(C)CC(=O)NCc1cccc(C)c1	–	inconclusive [inhibitor, single point]
CC(=O)Nc1ccccc1OCC(=O)NC1CCCCC1C (stereo not given)	inactive: 12.8%	–
CCCN1C(=O)/C(=C/c2ccc(C)s2)SC1=Nc1ccc(OC)cc1	inactive: -25.6%	–
Cc1nn(-c2ccccc2)c(Cl)c1C(=O)N1CCN(c2ncnc3c2cnn3-c2ccccc2)CC1	–	inconclusive [inhibitor, partial curve]
CC(C)CN(C(=O)COC(=O)CCc1c[nH]c2ccccc12)c1c(N)n(Cc2ccccc2)c(=O)[nH]c1=O	–	inconclusive [inhibitor, single point]
C=CCOC(=O)C1=C(C)NC(SC)=C(C#N)C1c1cccs1 (stereo not given)	–	inconclusive [inhibitor, partial curve]
CC1=NN(C(=O)c2ccoc2C)C(O)(C(F)(F)F)C1 (stereo not given)	–	inconclusive [inhibitor, single point]
CCOC(=O)c1c(C)n(-c2ccccc2)c2ccc(OCCN(C)C)cc12	–	inconclusive [inhibitor, partial curve, poor fit]
Cc1ccc(C)c(N=Cc2cc3c(cc2[N+](=O)[O-])OCO3)c1	–	inconclusive [inhibitor, single point]
CC(C)Oc1ccc(C(=O)NCCCNC(=O)c2ccccn2)cc1	inactive: 19.3%	–
Cc1ccc(C2=N/C(=C\c3cccs3)C(=O)N2Nc2ccccc2)cc1	–	inconclusive [inhibitor, single point]
O=C(CN1CCCCCC1)N1c2ccccc2Sc2ccc(C(F)(F)F)cc21	–	active: 13.1 µM
N#Cc1ccc(OCC(=O)Nc2nc(-c3cccnc3)cs2)cc1	–	active: 11.7 µM
COc1ccc(CCn2c(=N)c(S(=O)(=O)c3ccc(Cl)cc3)cc3c(=O)n4ccccc4nc32)cc1	–	active: 4.65 µM
Cc1ccc(S(=O)(=O)N(C)/N=C/C=C/c2ccccc2)cc1	inactive: 16.4%	–
Cc1ccc(NC(=O)Cn2c(CCC(=O)O)ccc2-c2cccs2)cc1	inactive: 5.22%	–
NC(=O)c1nsc(C(=O)N(c2ccc(F)cc2)C(C(=O)NCC2CCCO2)c2c[nH]c3ccccc23)c1N (stereo not given)	–	inconclusive [inhibitor, partial curve]
Cc1nc2ccccc2c2oc(C(=O)NCCCN3CCCC(C)C3)cc12 (stereo not given)	–	inconclusive [inhibitor, single point]
Cc1ccc(NC(=O)c2cc(C)n(-c3ccccc3)c2C)cc1	inactive: -74.3%	–

Compound	activity change, negative = inhibition	Potency
CC1CCCC(NC(=O)C2N(CCCN3CCCC3)C(=O)C3C(C(=O)Nc4ccc(Cl)cc4)C4C=CC32O4)C1C (stereo not given)	–	inconclusive [inhibitor, partial curve]
CCOc1ncccc1C(=O)Nc1ccc(F)c(F)c1	inactive: 25.5%	–
COc1ccc(S(=O)(=O)Nc2ccc3c(c2)N(C(C)=O)CCC3)cc1	inactive: 1.53%	–
Cc1ccccc1C1NC(c2ccccc2C)C(C)C(=O)C1C (stereo not given)	–	inconclusive [inhibitor, partial curve, poor fit]
O=C(Nc1cc([N+](=O)[O-])ccc1F)c1ccc2c(c1)OCCO2	inactive: 30.5%	–
CC(=O)Nc1ccc(C2=NNC(=Nc3ccc(S(=O)(=O)N4CCOCC4)cc3)SC2)cc1	–	inconclusive [inhibitor, single point]
CON/C=C(\C=Nc1ccc(F)cc1)c1ncc(C(F)(F)F)cc1Cl	–	inconclusive [inhibitor, single point]
O=C(OCC1COc2ccccc2O1)c1c(F)cccc1F (stereo not given)	–	active: 4.15 µM
COc1ccccc1C(=O)Nc1ccnn1C1CCN(Cc2ccc3nonc3c2)CC1	–	inconclusive [inhibitor, partial curve, poor fit]
CCC(CC)C(=O)OCC(=O)Nc1cccc([N+](=O)[O-])c1	inactive: 9.1%	–
Cc1cc2nc(CCN3CCOCC3)n(S(=O)(=O)c3ccc(C(C)(C)C)cc3)c2cc1C	–	inconclusive [inhibitor, partial curve]
O=C1C(Cl)=C(NCc2cccnc2)C(=O)c2ccccc21	–	active: 9.28 µM
O=C(CSCc1ccccc1)N/N=C/c1ccccc1OCc1ccccc1	–	inconclusive [inhibitor, single point]
O=C(NCc1cccc(Cl)c1)c1ccc(N2CC3CC(C2)c2cccc(=O)n2C3)c(NC(=O)c2cccnc2)c1 (stereo not given)	–	inconclusive [inhibitor, partial curve]
Cc1c(OC(C)C(=O)NCc2ccncc2)ccc2c3c(c(=O)oc12)CCC3 (stereo not given)	–	inconclusive [inhibitor, single point]
CC1CCCC(NC(=O)C2CCC(CNc3c(N4CCCC4)c(=O)c3=O)CC2)C1C (stereo not given)	inactive: -14.8%	–
COC(=O)C1=C(c2ccc(Cl)c(C(F)(F)F)c2)C[C@@H]2CC[C@H]1N2C(=O)NC1CC1	–	active: 14.7 µM
NC(=O)Cc1nc(-c2ccccc2)cs1	inactive: 16.4%	–
CC(C)c1onc(C(=O)N(C)Cc2ccccc2)c1[N+](=O)[O-]	–	inconclusive [inhibitor, partial curve, poor fit]
BrCCc1ccccc1	–	inconclusive [inhibitor, single point]
CC(=O)C1=C(O)C(=O)N(Cc2ccco2)C1c1ccc2c(c1)OCO2 (stereo not given)	inactive: -0.683%	–
COc1cc(-c2nc3cnccn3c2NC(C)(C)CC(C)(C)C)ccc1O	–	inconclusive [inhibitor, partial curve, poor fit]
